Measured values from PubChem BioAssay AID504832 (National Center for Advancing Translational Sciences (NCATS), 2011).
Among all 310,000 compounds or so, about 18,000 (5.8%) were called active. The inconclusive results got no clear call from the source; some entries with a clear call stand among them for comparison. Calls come from the whole dose curve; as a rule, active = well fitted inhibition curve with a large enough effect; inconclusive = small, poorly fitted or top-dose-only effect, or another doubt; inactive = no such curve, though single readings can be large or run the other way. Potencies of inconclusive entries are left out as doubtful fits.

Assay: Primary qHTS for delayed death inhibitors of the malarial parasite plastid, 48 hour incubation
Settings: P. falciparum luciferase growth in erythrocytes; series mostly up to 28.7 µM; activity change, negative = inhibition: at the top concentration
In short: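 Luciferase-expressing P. falciparum in infected erythrocytes (2% hematocrit, 0.1% parasitemia final) in RPMI 1640/0.5% Albumax were exposed to compound for 48 hours at 37 C, 5% CO2; growth read as luminescence.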
% is set by controls: 0 for no effect and ±100 for the full control effect; potency is the fitted concentration of half-maximal effect; tags give direction and shape of the fitted curve.

SMILES | activity change, negative = inhibition | Potency
COC(=O)N/N=C/c1ccc(-c2ccc(Cl)cc2Cl)o1 | inactive: -3.36% | 
Fc1ccc(C2CCCN2Cc2nc(-c3cnccn3)no2)cc1 (stereo unspecified) |  | inconclusive [inhibitor, single point]
COc1ccccc1CNC(=S)Nc1cc(C)ccc1C |  | inconclusive [inhibitor, partial curve, poor fit]
CCCN1C/C(=C/c2ccc3c(c2)OCO3)C(=O)/C(=C/c2ccc3c(c2)OCO3)C1 | inactive: 0% | 
Cc1cc(NC(=O)COC(=O)c2cccc(O)c2)no1 | inactive: 26.4% | 
CCN(Cc1ccccc1)C(c1cc2cc(C)ccc2[nH]c1=O)c1nnnn1CCOC (stereo unspecified) |  | inconclusive [inhibitor, partial curve]
CCOC(=O)c1sc(=S)n(-c2cc(F)ccc2F)c1N | inactive: -13.5% | 
O=C(Nc1cccc([N+](=O)[O-])c1)c1cccc(C(=O)Nc2cccc([N+](=O)[O-])c2)c1 |  | active: 2.94 µM
NC(=O)C1=C[C@@H](c2ccc(Br)cc2)C[C@@H](OCCCCO)O1 | inactive: 0% | 
CCCC(CCC)C(=O)OC1C[C@H]2CC[C@@H](C1)[N+]2(C)C (stereo partly specified) |  | active: 12 µM
Cc1ccc(/C=N/NC(=O)c2ccoc2C)o1 | inactive: 104% | 
CCc1cc(C(=O)N/N=C/c2ccc(O)cc2O)c2ccccc2n1 |  | inconclusive [inhibitor, single point]
N#C/C(=C\c1c[nH]c2ccc(Br)cc12)c1ccccn1 |  | inconclusive [inhibitor, single point]
CS(=O)(=O)c1cccc(-c2csc(N3CCC(C(N)=O)CC3)n2)c1 |  | inconclusive [inhibitor, single point]
CCC(CC)C(=O)Nc1ccc(C)cc1O | inactive: 43% | 
CCOc1ccc(-c2nn(-c3ccccc3)cc2/C=C(\C#N)S(=O)(=O)c2ccccc2)cc1C |  | inconclusive [inhibitor, partial curve, poor fit]
O=C(NCCc1cscn1)C1CCC(=O)N(Cc2ccc(Cl)cc2)C1 (stereo unspecified) | inactive: 28.5% | 
CN(/C(=N\S(=O)(=O)c1ccccc1)c1ccccc1)c1ccc(O)cc1 |  | inconclusive [inhibitor, partial curve, poor fit]
CCCCc1c(C)c(C#N)c2nc3ccccc3n2c1NCCN(C)C |  | inconclusive [inhibitor, partial curve]
CN(C)S(=O)(=O)c1cccc(NC(=O)CSc2nnnn2-c2ccccc2)c1 |  | inconclusive [inhibitor, single point]
CCOC(=O)c1nnn(-c2nonc2-n2cccc2)c1CN1CCCCC1 |  | inconclusive [inhibitor, partial curve, poor fit]
Cc1ccc(C)c(S(=O)(=O)NCc2ccc(C(=O)N3CCCCCC3)cc2)c1 |  | inconclusive [inhibitor, single point]
Fc1cccc(Cl)c1CNc1ccc(N2CCCC2)cc1 |  | inconclusive [inhibitor, partial curve, poor fit]
N#CCC(=N)N1CCN(c2ccc(Cl)cc2)CC1 |  | inconclusive [inhibitor, single point]

SMILES | activity change, negative = inhibition | Potency
Oc1ccc(/C=N/Nc2ncnc3c2ncn3Cc2ccccc2)cc1O |  | inconclusive [inhibitor, single point]
CCOc1ccc(-n2ccnc(SCC(=O)NCc3cccc(OC)c3)c2=O)cc1 |  | inconclusive [inhibitor, single point]
COc1ccc(Cl)cc1C(=O)Nc1cccc2ncccc12 |  | inconclusive [inhibitor, partial curve, poor fit]
CC1C(=O)N2CCCc3cc(S(=O)(=O)N(C)c4ccccc4)cc1c32 (stereo unspecified) |  | inconclusive [inhibitor, partial curve, poor fit]
CCOC(=O)CCCn1ccc2cc(S(=O)(=O)N3CCCC3)ccc21 | inactive: -6.55% | 
O=[N+]([O-])c1cc([N+](=O)[O-])c(Oc2c(F)ccc(F)c2F)cc1NN1CCCCC1 | inactive: -11% | 
COc1ccc2[nH]cc(CCn3ccc(=O)c(C)c3C)c2c1 |  | inconclusive [inhibitor, full curve, poor fit]
O=C(CCc1ccccc1Cl)Nc1ccc(S(=O)(=O)Nc2nccs2)cc1 |  | inconclusive [inhibitor, partial curve]
Cc1ccc(CN(C(=O)c2cccs2)C2CCS(=O)(=O)C2)cc1 (stereo unspecified) |  | inconclusive [inhibitor, single point]
COc1ccc(-n2c(=O)[nH]c3cc(C(=O)NCCc4ccc(Cl)cc4)ccc3c2=O)cc1OC |  | inconclusive [inhibitor, single point]
Cc1cccc(-n2nc3c(c2NC(=O)c2ccco2)CS(=O)C3)c1C (stereo unspecified) | inactive: 22.2% | 
O=C(N/N=C\C=C\c1ccc2c(c1)OCO2)c1cccnc1 | inactive: 8.49% | 
CSCC(C)N1CCC(CO)(CCCc2ccccc2)CC1 (stereo unspecified) |  | inconclusive [inhibitor, partial curve, poor fit]
CCOC(=O)N1CCN(C(c2ccc(C(C)C)cc2)c2sc3nc(C)nn3c2O)CC1 (stereo unspecified) |  | inconclusive [inhibitor, partial curve]
CSc1ccccc1COC(=O)Nc1ccccc1C |  | inconclusive [inhibitor, single point]
O=c1[nH]c(C2CCN(S(=O)(=O)c3ccccc3)CC2)nc2c1nnn2Cc1ccccc1 |  | inconclusive [inhibitor, single point]
COc1cccc(NC(=O)c2cc(-c3ccncc3)nc3c(C)cc(C)cc23)c1 |  | inconclusive [inhibitor, full curve]
O=C(Nc1ccnn1C1CCN(CCCc2ccccc2)CC1)c1ccccc1 | inactive: -29.6% | 
O=C(NCC(c1cccs1)N1CCOCC1)c1cn(-c2ccccc2)nc1-c1ccccc1 (stereo unspecified) |  | inconclusive [inhibitor, single point]
CCCNC(=O)c1ccc2c(c1)nc(C)n2-c1cccc(C)c1 |  | inconclusive [inhibitor, partial curve, poor fit]
Cc1ccc(S(=O)(=O)Nc2ccc3ccccc3n2)cc1 |  | inconclusive [inhibitor, single point]
Cn1c(=O)cc(Nc2ccccc2)[nH]c1=O | inactive: 7.29% | 
CCOc1ccccc1Nc1nc(-c2sc(C)nc2C)cs1 |  | inconclusive [inhibitor, single point]
CCN(CC)c1ccc(NC(=O)c2ccccn2)cc1S(=O)(=O)Nc1ccccc1OC |  | active: 5.86 µM

SMILES | activity change, negative = inhibition | Potency
COc1ccccc1C(O)P(=O)(OCC(C)C)c1ccc(N(C)C)cc1 (stereo unspecified) |  | inconclusive [inhibitor, single point]
CCOC(=O)Cn1ncc2c(=O)oc3ccccc3c21 | inactive: 11.9% | 
Cc1ccc(NC(=O)COC(=O)Cc2ccsc2)cc1S(=O)(=O)N(C)C |  | inconclusive [inhibitor, partial curve, poor fit]
O=C(Nc1cccnc1)c1ccc([N+](=O)[O-])s1 |  | active: 5.22 µM
COc1ccc(OCCCn2cc(/C=C3/C(=N)N4C=C(C)SC4=NC3=O)c3ccccc32)cc1 | inactive: 38% | 
Nc1nc(-c2cccnc2)nc(N2CCCCC2)n1 |  | inconclusive [inhibitor, partial curve]
COCCCn1ccc(O)c(Cc2ccc(F)cc2)c1=O |  | inconclusive [inhibitor, partial curve, poor fit]
COc1ccc(Cn2c(S(=O)(=O)CC(N)=O)nc3ccccc32)cc1[N+](=O)[O-] |  | inconclusive [inhibitor, single point]
Cc1cccc(OP(N)(=O)Oc2cccc(C)c2)c1 |  | inconclusive [inhibitor, full curve, poor fit]
Cc1ccc(-c2nnc(SCC(=O)N3CC(C)CC(C)C3)o2)cc1C (stereo unspecified) | inactive: 6.37% | 
CCOc1ccc(-c2nc(CSCC(=O)NCCCN3CCCC3=O)c(C)o2)cc1 |  | inconclusive [inhibitor, partial curve, poor fit]
CSCCC(=O)N1CC[C@@H](N2CCN(c3ccccc3F)CC2)[C@H](O)C1 |  | inconclusive [inhibitor, full curve, poor fit]
COc1ccc(C(=O)NCCc2nnc3ccc(SCC(=O)Nc4cc(C)on4)nn23)cc1 |  | inconclusive [inhibitor, single point]
CC(NC(=O)C1CCN(C(=O)Nc2ccccc2)CC1)c1ccccc1 (stereo unspecified) | inactive: -1.23% | 
CN(C)c1ncc([N+](=O)[O-])cc1C(F)(F)F |  | active: 0.738 µM
c1ccc(Cc2noc(CN3CCCN(C4Cc5ccccc5C4)CC3)n2)cc1 |  | inconclusive [inhibitor, single point]
O=C(Nc1cccnc1)C1(F)C(F)(F)C(F)(F)C(F)(F)C(F)(F)C1(F)F | inactive: -3.61% | 
c1ccc(-c2cn(C[C@H]3CC[C@@H]([C@@H]4CC[C@H](Cn5cc(-c6ccccn6)nn5)O4)O3)nn2)nc1 | inactive: -6.76% | 
Cc1cccc2c1N(N=O)CCC2 | inactive: 40.7% | 
CN(C)CCCN(Cc1ccccc1)C(=S)Nc1cccc(C(F)(F)F)c1 |  | inconclusive [inhibitor, single point]
CN(CC(=O)Nc1ccccc1Cl)C(=O)COC(=O)c1cc([N+](=O)[O-])ccc1N1CCOCC1 | inactive: -0.86% | 
CC(C)C(=O)Nc1nnc(SCC(=O)NCc2ccco2)s1 | inactive: 6.49% | 
CCOC(=O)N1CCN(C(=O)CN(Cc2ccccc2)S(=O)(=O)c2ccc(OC)c(C)c2)CC1 |  | inconclusive [inhibitor, single point]
